Assay results reported in the supplement of paper PMC10126150.
Values marked as one replicate rest on one cluster of the flow cell; about a third of the high ones do not repeat.

tested on: ATP; assay: switch fluorescence ratio, 500 uM ATP over buffer (Cy3 cluster intensity, sum of 5 cycles each) (fold (ratio)); higher = stronger signal-on switching upon ATP binding; sequences stand for … in TCGTCGGCAGCGTCAGATGTGTATAAGAGACAGTTTTTTTTTTTTTTTTTTTTTTTTT…TC; settings: aptamer strand: ATP DNA aptamer (quencher-CACCTGGGGGAGTATTGCGGAGGAAGG + anchor), 100 nM annealed; ATP concentration: 500 uM; one replicate
How it was run: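 Exposure to 500 uM ATP lasted 15 min at 22 °C before imaging, and a selection-buffer image was taken beforehand, for Cy3-labelled switching-strand clusters on a modified Illumina MiSeq flow-cell annealed to 100 nM quencher-labelled ATP aptamer. Five buffer/ATP cycles were run with NaOH stripping and re-annealing between them. The fluorescence ratio per cluster is summed target-cycle over summed buffer-cycle Cy3 intensity, averaged per switch-domain sequence. Clusters outside 100-1000 RFU were excluded.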

Sequence	switch fluorescence ratio
GCTTTGAACT	0.968
GCTTTGTTCT	1
GCTTTTAATT	0.942
GCTTTTGTCT	1.04
GGAAAAACAC	1.05
GGAAAATC	1.01
GGAAACCCTA	1.03
GGAAAGCAGG	1
GGAAAGCATA	0.999
GGAAATAGAG	1.04
GGAAATGGTT	1.02
GGAACAGCTC	0.993
GGAACATGAT	0.976
GGAACGCATT	1.18
GGAACGGCTT	0.994
GGAACTCCGG	1.03
GGAACTGGTT	0.899
GGAAGAAGAG	0.956
GGAAGAATTC	0.968
GGAAGCATGG	1.12
GGAAGCGCCT	0.969
GGAAGCGCGA	1.06
GGAAGGATTT	1.13
GGAAGGCAC	1.02
GGAAGGCATG	1.04

Sequence	switch fluorescence ratio
GGAAGGCTTT	1.05
GGAAGGTGTA	0.948
GGAAGTACAT	1.43
GGAATAAGTT	0.999
GGAATAGCAC	1.03
GGAATCACGG	1.01
GGAATGCGCG	0.919
GGAATGTAGA	0.994
GGAATTAGT	0.986
GGAATTATCA	0.994
GGAATTATTA	1
GGAATTTGCC	0.983
GGACAAATGG	1.01
GGACAAGTGC	1.03
GGACACGCTA	1.33
GGACACGTGA	1
GGACAGAGGC	1.03
GGACAGTTTG	0.977
GGACATGCGC	0.996
GGACATTGGC	1
GGACCCCATG	1.05
GGACCGATGA	1.07
GGACCGGTCG	0.982
GGACCTATGC	1.05
GGACGACAGG	1.07

Sequence	switch fluorescence ratio
GGACGACGTT	0.973
GGACGAGTGC	1.02
GGACGCCGTT	0.962
GGACGTACCT	1.8
GGACTACCTA	1.1
GGACTACGGG	1.05
GGACTAGGCG	1.04
GGACTAGGGT	1.01
GGACTAGTCT	1.02
GGACTATCAC	1.1
GGACTGAGCG	0.911
GGACTGGTGC	1.05
GGACTGGTGT	1.01
GGACTTTGCT	1.01
GGAGAAA	0.989
GGAGAAAAGT	0.988
GGAGCAAGTT	1.91
GGAGCCAAAC	1.88
GGAGCGCCTT	1.01
GGAGCGCGAT	1.04
GGAGCGGTTC	2.18
GGAGCTACCT	1.2
GGAGCTTATT	1.48
GGAGGAATTA	1.02
GGAGGATAGT	1.03

Sequence	switch fluorescence ratio
GGAGGATTAC	1.28
GGAGGCAAGC	1.78
GGAGGCGTAC	1.08
GGAGGGAAGC	1.12
GGAGGGCTTC	0.955
GGAGGGGAAA	1.03
GGAGGGTATT	0.993
GGAGTAGGGT	0.996
GGAGTAGTCT	1.09
GGAGTCACTC	0.99
GGAGTCCCGC	0.982
GGAGTCGCCA	0.973
GGAGTCTTTA	1
GGAGTGAAT	1.02
GGAGTGCTAT	0.99
GGAGTGGAGA	1.04
GGAGTGGGCG	0.974
GGAGTGGGGC	0.975
GGAGTTAAGA	1
GGAGTTCGAA	1.02
GGAGTTCGGA	1.02
GGATAAACAT	1.02
GGATAAATGG	0.977
GGATAACGGT	1.01
GGATAAGGTG	0.999

Sequence	switch fluorescence ratio
GGATATAGAT	0.957
GGATATAGGT	1
GGATATTTGA	1.02
GGATCAGAGC	0.949
GGATCCTTT	0.971
GGATCGACGT	1.15
GGATGAACTA	0.948
GGATGAATTT	1.03
GGATGACAGT	1.04
GGATGCGAGC	1.03
GGATGGGCGG	0.987
GGATGGTAGG	0.986
GGATGTCTAA	0.997
GGATTCCAGC	0.975
GGATTCGCTG	0.979
GGATTCGTCA	1
GGATTGAAAT	0.959
GGATTGGCA	0.986
GGATTTGATT	1
GGATTTGTTT	0.977
GGCAAAATGG	1
GGCAAATTCA	1.06
GGCAACAGAT	1.06
GGCAACTCTG	1.01
GGCAACTTAG	1.07

Sequence	switch fluorescence ratio
GGCAAGTGGA	1.02
GGCAATGACG	1.05
GGCAATTCCA	1.03
GGCACCCTAT	1.04
GGCACGCAAC	1.83
GGCACGGGAC	1.06
GGCACTGTCG	1.02
GGCAGAATTG	1
GGCAGACCAG	1.02
GGCAGACGTT	0.986
GGCAGAGTAA	0.987
GGCAGTTAGA	1.03
GGCATACAAG	0.972
GGCATACTAT	1.05
GGCATAGACA	1
GGCATAGCGA	1.07
GGCATAGGAC	1.06
GGCATATGGA	1.03
GGCATATGGT	0.957
GGCATATTGC	1.03
GGCATCATCG	1.09
GGCATGGTGC	1.01
GGCATGTCAT	1.01
GGCATTGATG	0.998
GGCCAAAGAT	0.963

Sequence	switch fluorescence ratio
GGCCAAGCAT	0.981
GGCCAATGAC	1.02
GGCCAGAATC	0.986
GGCCAGACGG	0.995
GGCCCAGCCG	0.975
GGCCCCCCGA	1.06
GGCCCCGGAG	1.12
GGCCCCTTCG	1.2
GGCCCGCCCA	1.23
GGCCGAGGTA	1.06
GGCCGAGTAC	1.04
GGCCGCGGAT	1.08
GGCCGCTATT	1.31
GGCCGTAACA	0.983
GGCCGTAGGA	0.989
GGCCTAAA	0.979
GGCCTCCCCC	1.35
GGCCTCCTTA	1.04
GGCCTCTGCG	1.06
GGCCTGAGAA	0.991
GGCCTGCGCG	0.996
GGCCTGTTTG	1
GGCGAAATT	1.01
GGCGAAGTAA	1.07
GGCGAGGGTT	1.02

Sequence	switch fluorescence ratio
GGCGATAAAA	1
GGCGATGACA	1
GGCGCACAGC	1.03
GGCGCCCGTC	0.994
GGCGCGACAC	1.03
GGCGCGCGAA	0.966
GGCGCGGATA	1.05
GGCGCGGCTT	0.978
GGCGCGTTAT	0.976
GGCGCTGGGG	0.981
GGCGG	1
GGCGGACCCG	1.01
GGCGGCGATA	1.04
GGCGGGAGCC	1.05
GGCGGGCGGT	0.977
GGCGGTCGGG	1
GGCGGTTCGT	0.982
GGCGTAGGAC	1.04
GGCGTAGGTC	1.03
GGCGTCCCGG	1.01
GGCGTGAGCA	0.989
GGCGTTAAGT	1.01
GGCGTTATGA	1.03
GGCGTTCCAG	0.984
GGCGTTCTGA	0.93
